From patent US11034935B2, “Liver organoid, uses thereof and culture method for obtaining them” (Koninklijke Nederlandse Akademie van Wetenschappen, priority 2010, dated 2021)

Tested on: Lgr5
Conditions: Lgr5-LacZ knockin mice, 0.8 ml/kg injection
Excerpt: The Wnt target gene Lgr5 marks stem cells in several actively self-renewing tissues, but has not previously been reported to be expressed upon injury. […] No expression of the reporter was detected in wild-type littermates undergoing similar injury protocol (see FIG. 13A, bottom right panel).

ClC(Cl)(Cl)Cl [CC14, carbon tetrachloride]
Lgr5 reporter expression in the liver: clear expression of the reporter in newly formed bud structures in the liver
